This is one part of the list. The list includes weakly bound sequences.
What follows are sequences tested against MaxL homodimer (UniProt P61244) (assay: universal protein-binding microarray (PBM)). Details: PBS-based mixture, 10 nM His-tagged protein dimer, 2% milk, 200 ng/uL BSA, 50 ng/uL salmon testes DNA, 0.02% TX-100; detection with Alexa 488 anti-His …; high values mean tight binding; most listed sequences are background and not binding sites; double strand, one strand shown.
UniProt P61244, sequence (P61244 whole entry): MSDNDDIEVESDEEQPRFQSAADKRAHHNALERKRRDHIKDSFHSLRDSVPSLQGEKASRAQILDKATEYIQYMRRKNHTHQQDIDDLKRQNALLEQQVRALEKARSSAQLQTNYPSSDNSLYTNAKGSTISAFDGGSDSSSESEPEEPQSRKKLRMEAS

Sequence | binding signal (normalized occupancy)
ACTCTGAC | 0.0716
TCATGAAA | 0.0788
CGTAGACG | 0.0691
GGCTGAAC | 0.0689
GGTCCTCA | 0.0714
AAAATCGC | 0.0722
AGCTAGAT | 0.0759
ACTTTGGC | 0.07
AGCGTTGC | 0.0728
AAAACCTG | 0.0774
CATACGAG | 0.0793
CAACGTAC | 0.0758
CATTACTC | 0.0797
GCGCCTAA | 0.0658
AATGTCAC | 0.0807
CAAGGGGC | 0.0772
AATGACCG | 0.0732
CATTGGAG | 0.07
GACCGTTA | 0.0732
GAGGGACA | 0.0767
AAGTAGAT | 0.0721
ATGGCCAG | 0.0782

Sequence | binding signal (normalized occupancy)
TACTATAA | 0.0882
TCCCGGCA | 0.0675
AACAACTT | 0.0698
ACGAACCC | 0.072
CAACTACG | 0.0717
TCAGCCCA | 0.0771
CGGATCTA | 0.0784
ACTAAGCA | 0.0845
AAGTTGAA | 0.0743
AACGCGTA | 0.0792
CATCATAC | 0.0827
CGCACGAC | 0.0787
TACTTAGA | 0.0735
GTAGAAAA | 0.0747
GAGTATGA | 0.0832
GTGACATA | 0.0816
TCGCTAAA | 0.0733
CGGGGTTA | 0.0781
AGGATGGG | 0.077
GAAGAACC | 0.0735
ATGAAGTC | 0.0771
CTTGGCAA | 0.0746

Sequence | binding signal (normalized occupancy)
AACGTATG | 0.0809
ACATAGGA | 0.0874
GGGGCCCC | 0.0672
ATTCAAGA | 0.0708
ATTGCGCG | 0.0747
GACTCCTC | 0.0692
AGAACCCT | 0.0728
CCACTAGC | 0.0779
ATAGCACA | 0.0775
CACTACCG | 0.0753
TACAAGCA | 0.0772
ATTTTGAC | 0.0815
CAGCCCCA | 0.0738
GCTTCGCC | 0.0612
CGAGTGAC | 0.0731
ATGGCTAG | 0.0798
CTTATAAG | 0.0712
CGGGTCAA | 0.0729
AGATGTCC | 0.0794
CGACGCAC | 0.0773
GTGACGCA | 0.0772
ACCGGACT | 0.0692

Sequence | binding signal (normalized occupancy)
TAAAGAGA | 0.0738
GGACTAAA | 0.0695
CATACGGC | 0.0791
GTAATTCA | 0.0752
GTCCACAA | 0.0768
CGTAGCTA | 0.0725
ACTCCTCC | 0.0748
CAAATTAA | 0.0753
TCTCTGAA | 0.0683
AACCTCAT | 0.0862
ACTAGCCC | 0.0747
ATGCGCTG | 0.0738
CCCCGGTC | 0.0711
ACACGAGA | 0.0977
CCAGTGGG | 0.0697
CCTCTCAG | 0.0693
CGCTAGTA | 0.0705
CTCAGAAC | 0.0759
CCCCCAGA | 0.0717
ATTTCCAC | 0.0826

Source: publication PMC4242493
